# Measured values reported in PubChem BioAssay AID485344 (National Center for Advancing Translational Sciences (NCATS), 2010).
# The campaign covered roughly 340,000 compounds. About 6,900 (2%) were called active. Rule as the data show it: active = inhibition above about 30%; inactive = below that, where a call was filed. The entries are a selection whose mix differs from that of the whole data set. Entries without a call were filed so in the source.
# Target: D(2) dopamine receptor (Homo sapiens) (UniProt P14416)
# Chain of UniProt P14416 (P14416 whole entry, looked up): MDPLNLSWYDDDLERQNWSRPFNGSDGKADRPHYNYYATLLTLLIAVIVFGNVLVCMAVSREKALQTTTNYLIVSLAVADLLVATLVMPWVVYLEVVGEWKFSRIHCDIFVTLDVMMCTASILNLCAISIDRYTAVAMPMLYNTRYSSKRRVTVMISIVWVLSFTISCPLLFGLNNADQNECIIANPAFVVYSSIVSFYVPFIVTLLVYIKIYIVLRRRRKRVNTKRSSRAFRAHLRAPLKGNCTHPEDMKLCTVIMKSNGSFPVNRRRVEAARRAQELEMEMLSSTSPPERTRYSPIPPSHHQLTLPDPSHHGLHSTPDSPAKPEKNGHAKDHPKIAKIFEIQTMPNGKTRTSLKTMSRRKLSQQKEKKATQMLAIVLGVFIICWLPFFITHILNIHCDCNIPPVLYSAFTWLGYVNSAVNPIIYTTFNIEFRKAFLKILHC
# Experiment: HTS Assay for Allosteric Antagonists of the Human D2 Dopamine Receptor: Primary Screen for Antagonists; also: 0% is about no effect
# Settings: HEK293 TREx D2 cells, calcium flux, dopamine EC80; at 10 µM; stronger effect = higher value
# Method in brief: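 Antagonism is scored as inhibition of an EC80 dopamine-evoked calcium signal in a force-coupled, tetracycline-inducible HEK293 T-REx D2 line, with compound present 180 s before agonist.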
row,Structure (SMILES),inhibition
1,COc1ccc(-c2nc3sc(CCNC(=O)c4cc(Cl)ccc4OC)c(C)n3n2)cc1,-13.6%
2,CN(Cc1ccccc1)S(=O)(=O)c1ccc(F)c(C(=O)Nc2cccc(Cl)c2Cl)c1,-19.6%
3,Cc1ccc(C(C)(C)C)c(OCC(=O)NCCc2nc3ccccc3[nH]2)c1,6.71%
4,CCN1CCN(c2ccc(NS(=O)(=O)c3c(C)nc4sccn4c3=O)cc2Cl)CC1,10.5%
5,COc1ccc(C(=O)CC2(O)C(=O)N(Cc3ccccc3Cl)c3ccccc32)cc1 (stereo not given),9.82%
6,COc1ccc(CNC(=O)CCC(=O)N2CCSc3ccccc32)cc1,-4.01%
7,CCOc1ccc(-n2c(C)nc3cc(C(=O)NCCC4=CCCCC4)ccc32)cc1,-7.1%
8,CCOC(=O)c1ccc(NC(=O)C2=C(C)Nc3nc(SCc4ccc(Cl)cc4)nn3C2c2ccc(OC)cc2)cc1 (stereo not given),-7.45%
9,COc1ccc(-c2nnc(SCC(=O)Nc3ccc(Cl)cc3)s2)cc1,-6.45%
10,CCOc1ccc(N2C(=O)CC(NC3CCN(C(=O)c4ccc(F)cc4)CC3)C2=O)cc1 (stereo not given),active: 37.9%
11,COc1cccc(-c2cc(C(=O)Nc3cc(OC)c(OC)c(OC)c3)on2)c1,-24.1%
12,COc1cccc2c1cc1c(=O)n(CC(=O)N3CCN(c4cc(Cl)ccc4C)CC3)nc(C)n12,-2.58%
13,COc1ccc(-c2nc(Cn3c(SCc4ccc(C)cc4)nc4cccnc43)c(C)o2)cc1OC,-4.58%
14,CCC1CCCCN1CC(=O)N1CCCc2c1c(=O)oc1ccc(OCc3ccccc3)cc21 (stereo not given),-9.5%
15,O=C(CCCn1c(=O)c2cccn2c2cccnc21)NCc1ccc(F)cc1,-1.08%
16,O=S(=O)(c1ccccc1)c1nc(-c2ccc(Cl)cc2Cl)oc1N1CCCCCC1,7.5%
17,COc1ccc(CNC(=O)Cn2nnc(-c3ccc(S(C)(=O)=O)cc3)n2)cc1,2.31%
18,COc1cc(NS(=O)(=O)c2ccc(NC(=O)/C(=C\c3ccccc3OC)NC(=O)c3ccccc3)cc2)nc(OC)n1,active: 32%
19,Cc1cc(C)cc(N2CCn3c2nc2c3c(=O)n(Cc3ccc(Cl)cc3)c(=O)n2C)c1,-6.86%
20,CC(C)c1ccc(CNc2nc(-c3ccco3)nn2S(=O)(=O)c2ccc3ccccc3c2)cc1,-8.36%

row,Structure (SMILES),inhibition
1,COc1cccc(CN(Cc2ccccc2F)S(=O)(=O)c2ccc(S(=O)(=O)NCc3ccccc3)cc2)c1,active: 43%
2,O=C(/C=C/Nc1ccc(F)cc1)c1ccc(Oc2ncccn2)cc1,active: 34.5%
3,Cc1nc(SCC(=O)NCc2ccco2)c2c3c(sc2n1)CCCC3,active: 36.3%
4,CC(C)c1ccccc1OCC(=O)N(C)CC(=O)Nc1ccc(F)cc1,active: 55.8%
5,Cc1ccc(Nc2c(-c3ccncc3)nc3ccc(C)cn23)cc1,1.51%
6,CCOc1ccc(OCC)c(S(=O)(=O)N2CCN(c3cccc(C)c3C)CC2)c1,-1.02%
7,CCOC(=O)C1(CCc2ccccc2)CCN(Cc2cccc3nccnc23)CC1,active: 65.3%
8,Cc1ccc(CN(C(=O)COc2cccc([N+](=O)[O-])c2)c2ccccn2)cc1,3.19%
9,CCOC(=O)C1CCN(c2ncnc3c2nnn3C)CC1,25.1%
10,CCCCNC(=O)CSc1nc2cc3c(cc2c(=O)n1CCCCCC(=O)NCc1ccc2c(c1)OCO2)OCO3,-18.8%
11,Cc1ccc(-n2c(SCC(=O)NCc3ccc(F)cc3)nc3c([nH]c4ccccc43)c2=O)cc1,-4.76%
12,Cc1ccc2oc3c(c(=O)c2c1)C(c1ccccc1F)N(CCCN1CCOCC1)C3=O (stereo not given),-9.55%
13,COc1ccc(N(CC(=O)NCCc2ccccc2)S(=O)(=O)c2ccccc2)c(OC)c1,8.01%
14,Cc1cc(C)cc(NC(=O)CCc2c(C)nn(-c3ccc(N4CCCC4)nn3)c2C)c1,22.9%
15,COc1cc2c(cc1OC)C(COc1ccc(F)cc1)N(C(=O)Cc1ccc(F)cc1)CC2 (stereo not given),9.63%
16,CCC(Sc1nc2cc(OC)c(OC)cc2c(=O)n1CCc1ccc(Cl)cc1)C(=O)NCCOC (stereo not given),27.2%
17,Cc1cc(C)cc(OCC(=O)Nc2ccc(-c3nc4ccccc4s3)cc2)c1,-16.4%
18,COc1cc2nc(SCc3cccc(Cl)c3)n3nc(CCn4nc(C)cc4C)nc3c2cc1OC,-2.32%
19,Cn1nnc2c(N3CCN(c4ccccc4F)CC3)ncnc21,17.4%
20,CCOc1ccc(-c2cc(OC(=O)c3ccccc3)c3c(C)oc(C)c3c(=O)c2)cc1,-6.15%

row,Structure (SMILES),inhibition
1,Cc1ccccc1C(=O)Nc1cccc(C(=O)OCc2cc(=O)n3c4c(sc3n2)CCCC4)c1,-1.37%
2,O=C(CSc1nc2ccccc2n1Cc1ccccc1F)NCc1ccccc1,-14.1%
3,Cc1ccc(NC(=O)N(Cc2cn(C)c3ccccc23)C2CCCCC2)cc1C,8.4%
4,CC(C)NC(=O)c1ccc(-n2c(-c3ccccc3)cc3c2CCCCC3)cc1,-6.01%
5,COc1ccc(NC(=O)N2CCCC(C(=O)NC(C)C)C2)cc1 (stereo not given),active: 32.7%
6,O=C(c1ccc2c(c1)OCO2)C1CCCN(C2CCN(CCc3ccccc3)CC2)C1 (stereo not given),active: 69.8%
7,Nc1ncc(S(=O)(=O)NCc2ccc(Cl)cc2)cn1,3.61%
8,Cn1c(=O)n(C)c2cc(NS(=O)(=O)c3ccc(Cl)cc3)c(NCc3ccccc3)cc21,-0.547%
9,COc1cc(CNCCCSc2nnnn2C)cc(Br)c1OC,20.2%
10,Cc1ccc(-n2c3c(c(=O)[nH]c2=O)C(NC(=O)C(C)(C)C)(C(F)(F)F)C(=O)N3)cc1 (stereo not given),-8.15%
11,O=C(Nc1cccc(F)c1)C1CCN(c2nc3ccccc3nc2C(F)(F)F)CC1,-3.89%
12,CCc1ccccc1-n1nnc(-c2nc(-c3ccccc3F)no2)c1C,-5.35%
13,COc1ccc(OC)c(NC(=O)CCCOc2cc(=O)n(C)c3ccccc23)c1,10.4%
14,COc1cccc(NC(=O)CSC2=Nc3ccccc3C3=NC(CCC(=O)NC4CCCCC4)C(=O)N23)c1 (stereo not given),14.6%
15,COc1cccc2c1Oc1ncccc1N(C(=O)CCC(=O)NCc1ccc(OC(C)C)cc1)C2,9.61%
16,Cc1nn(CC(=O)NC(C)c2ccccc2)c(=O)c2cc3occc3n12 (stereo not given),-1.06%
17,O=C(CSc1nc2c([nH]c3ccccc32)c(=O)n1-c1ccccc1)Nc1ccccc1C(F)(F)F,-2.3%
18,NC(=O)COc1ccc(-c2noc(COc3ccc(Cl)cc3)n2)cc1,-13.3%
19,COc1ccc(CCNC(=O)COC(=O)c2cccs2)cc1,active: 36.7%
20,CCOC(=O)C1=C(CN2CCN(c3ccc(Cl)cc3)CC2)NC(=O)NC1c1ccc(F)cc1 (stereo not given),-16%
